This is one part of the list. At the low end of the ranking, values are background and their order means little. The protein was read in a cell extract, so binding may be indirect.

The experiment deals with T1, HNF4alpha2 (COS-7 nuclear extract) (UniProt P41235).
T1 sequence: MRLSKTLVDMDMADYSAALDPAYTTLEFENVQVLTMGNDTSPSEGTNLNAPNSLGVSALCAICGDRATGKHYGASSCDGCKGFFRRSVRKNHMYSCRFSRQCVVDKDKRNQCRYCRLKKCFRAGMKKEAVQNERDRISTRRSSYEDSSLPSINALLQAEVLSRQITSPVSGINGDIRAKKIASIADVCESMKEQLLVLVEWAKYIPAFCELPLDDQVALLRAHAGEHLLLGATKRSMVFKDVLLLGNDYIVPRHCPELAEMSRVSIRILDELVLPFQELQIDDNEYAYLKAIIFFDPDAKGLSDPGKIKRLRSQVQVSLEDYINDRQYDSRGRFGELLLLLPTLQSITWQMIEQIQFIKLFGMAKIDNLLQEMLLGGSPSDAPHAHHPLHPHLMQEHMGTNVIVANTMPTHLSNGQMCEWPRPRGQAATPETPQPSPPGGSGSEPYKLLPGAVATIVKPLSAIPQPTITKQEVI
Put plainly: protein-binding microarray. The following applies: COS-7 nuclear extract on double-stranded Agilent 4x180k PBM; binding buffer, salt, pH and temperature not given; high values mean tight binding; double strand, one strand shown; sequences stand for … in …GCCTAGGGAGATTAGAGTATCGGTCGA
As for TTTTGCCTTGCATCAGAATCTGGACAGTGT, the binding signal (log2 normalized intensity) stood at 1.67.
The figure for CGGCCGCTCCCTCCCCTCCTCCCTTGCTCA is 4.16; for AGGCCCCAGCCACGCCCTCTAACCCAGGTT it is 3.08; for GTCAGTCATACAGAGCTGTCACGCAGTGTT it is -0.423.
The figure for CGGACGTGTTCCCACAGTGCCCTCTATTGG is 2.35.
Consider TTGCAACCAAAGGAGTCCTGGCTGACAGAT, for which the binding signal (log2 normalized intensity) is -0.806.
The figure for GCCTAACTTTGATAGGCACAATCAGCAAAC is -1.17; for GGGGATGAAGGGGGCGGGGGCGAAAGGGAG it is -1.05; for CCACAACCTACCCTTTGCCCTGGACATATT it is 2.7.
The figure for TCACCCACCAGAGGGAACGCCCGACGCGAA is -1.11; for GAGAGGAGCAGGGTATCAGTTGAACAGAAT it is -0.931.
The figure for AGCCTCAAAGATCAAAGGTAGATGAATCCA is 0.2; for ACATAGTCCCTGCACAGGTTCCTCGCCTAT it is -1.12; for GCTTGCAAGACTGCATTCTCTAGATGTCCC it is 0.328.
In the case of ACCCAGGCATATCCAACCTTCTCCCACTTC, the binding signal (log2 normalized intensity) was -1.12.
The figure for AAACCTACACAGACCCTCTTTTCTTTGTAC is 1.26; for TCTTCATTTCCCTCATGCAGGGAGGTCAAA it is 2.61.
Consider GGCAAAACACCCCTTTCACTTCTTCCCCTC, for which the binding signal (log2 normalized intensity) stood at 3.8.
Consider ATTGTGAAACGTTTGAATTCTTGCCTATCC, for which the binding signal (log2 normalized intensity) was -1.08.
For the sequence TAACCTGCAGTTTCCCTATTCTCAGTGATA, the binding signal (log2 normalized intensity) is -1.03.
The figure for GAAATTTCCTCTTACCACATCTCAACCTTT is 3.14; for CTGTGTGGGAAGAGGGCCTAGGGCAGATCC it is -1.12.
The figure for GAATTGGGACCTGAGAACATGTAATCATTT is 0.357.
Take AGACTCAGCATGTCTTCTGACCTTTGGCAA: the binding signal (log2 normalized intensity) came out at 6.26.
Turning to ACTTCAAGGGAGTAAAGGTCGTTCTATCGG, the binding signal (log2 normalized intensity) was found to be 4.09.
The figure for CAAGCTCTAGCATCCCTCTCTTGCTGGGCC is -1.27; for AAGCTTTCTTGGGCAAGAAAGGGGTCAGCA it is 2.08.
The figure for GGACACAAAGTGGACAGTGTCTGACTAGAG is -0.785; for CCTTCGCTCGGCTCGCTCTCCCTGCTGGCC it is -0.911; for TTTACTTTTTAAACACCTAGAGTTACAGTC it is -1.09.
The figure for TCCAGCTCTGTGACTTTACCTGAAATGAGA is 0.349.
For CCATTGTTATCTGATCAAATTCCACACCCC, the binding signal (log2 normalized intensity) turned out to be 3.11.
The figure for AGCCTAGGGTGAGGTGTTCGGGGGACGGAG is -1.11; for GCACAACATACTTGGAGACAGTCACTCCCA it is -1.06.
The figure for ACTGGTTTTTCTTGGGTGTATGGGTATAGG is 2.59.
The figure for TGGAATGTCTCTGGTTGAAGGGGAGGTTAT is 1.11; for GAAGGATAGAGAGTTGGGAGGGAACAGTCC it is -1.12.
AGCTGTGTCTACCCTTTTGCCCTTTGAGCT: the binding signal (log2 normalized intensity) was 5.72.
For GCATCTGGACCATTGCTGACCTTGCCTCTG, the binding signal (log2 normalized intensity) worked out at 1.61.
In the case of GTCCTGTGGGGCCCAGAGCCAGGTGTGCTG, the binding signal (log2 normalized intensity) was -0.375.
For the sequence AATGCCAGGCATTTGCGATAATAGAGATTG, the binding signal (log2 normalized intensity) is -1.18.
The figure for AGTGGGAGGTGGAAGTGGCAGATTAGAGAC is -1.16.
On to CCTCCGCTCCGCCGGACCGGCCAAACTGGT, for which the binding signal (log2 normalized intensity) was -1.03.
On to GTGGAGGATTTGGGTGATGTTTGGTTAAGA, for which the binding signal (log2 normalized intensity) came to 1.25.
The figure for CTGTGTTATGCTTGCAGGTGTCAGGGGTCA is 3.94; for CCTTTCATGTTGAACGTCTTCAGAAACTAA it is 0.771.
The figure for AGAAAGGTCTAAAAGTAGCTGTTGGAATTT is 1.39; for TCCACATGTGGGGAAACTGGACTGTAATTT it is 1.71; for TTCTGAGAGTGGCAAGCAGGAGCTGGCCTG it is -1.04.
The figure for GACATAAAATTAAAGCGGACGGGCTGCGGA is -1.17; for GCAGAGGCTGCAGAGGTTTCGCAAGGACGT it is -0.792.
For the sequence AGCAATGTTTCTTGTCCAGGGACTTTGAAC, the binding signal (log2 normalized intensity) came to 5.74.
The figure for GTTTTACAAACACAATGGAAGGCTGTATGT is 0.502.
The figure for CCACCACAAACCCTTCATCCAGCTGTGCTT is -0.538.
In the case of TGACCCTTGAACAATGTGGGGGTCGGGGCA, the binding signal (log2 normalized intensity) amounted to 2.16.
For the sequence TACACAAGTAGAATGAAAGCGGCTCAGGAA, the binding signal (log2 normalized intensity) is -1.16.
Turning to TATTCAGTCCCCCATCCCAGAGGTCAAACT, the binding signal (log2 normalized intensity) was 5.08.
Turning to TGAAACAGTGGGCAATATGAAGGGGAAAAA, the binding signal (log2 normalized intensity) was -0.838.
CAACAGGTATGCTCCAAAGATGATGCCTCA: the binding signal (log2 normalized intensity) was -0.799.
The figure for TTGTGCAAATGGAAAATTGTAATCTTCAGC is 0.503; for GGTGTGTTGCAACTTTGACTATAGCGTCTC it is 0.723.
TCTCTGCTTGCAATTTTTGTTCAGTCATTG: the binding signal (log2 normalized intensity) was determined as 1.14.
The figure for CCAACAAGGCAGGAGATTCCACATTCCCTT is -1.17.
The figure for GCAGTGTGGGGACCTGGACTCCCAAGATGG is -1.1; for GAAGTTTGGCAATTACCCAACAGACTTTCC it is -1.1; for CCCCCCTCACACTTTGGCTACTCAGTTTTT it is 1.39.
The figure for ACCAAACCTGAAAAACCTCTCTCCAGGTAC is -0.888; for TGAAGTTCCAGAGCCTTCAAAGGAAAGCAG it is -1.19; for GACTCCACAGTGGGGCAGATCACAAGCACC it is -1.11.
Take GGTTTGCTCTGCTACTGACCAGATGTTATT: the binding signal (log2 normalized intensity) worked out at 1.03.
The figure for TCTCATTCACACCCTCAGCTGATGGGTCTC is 1.21.
The figure for CCCTTTCCTCATATTTTGCATACCAAGGGA is 1.31; for CTTGGGGCTGATGTCTTTCTGGCTGGAGAG it is 1.05.

Source of the values: PMC10726135.
